In PMC4336329 (PLoS ONE, 2015):
Hit rate of the full screen: of about 310,000 compounds, about 2,200 (0.71%) showed an effect of 50% or more. The effect is printed as a negative number. The list shows a part of the results.

target: human ether-à-go-go-related gene (hERG) potassium channel (human, UniProt Q12809); assay: primary screen, population patch clamp on CHO cells stably expressing hERG
Sequence (Q12809 whole entry, looked up): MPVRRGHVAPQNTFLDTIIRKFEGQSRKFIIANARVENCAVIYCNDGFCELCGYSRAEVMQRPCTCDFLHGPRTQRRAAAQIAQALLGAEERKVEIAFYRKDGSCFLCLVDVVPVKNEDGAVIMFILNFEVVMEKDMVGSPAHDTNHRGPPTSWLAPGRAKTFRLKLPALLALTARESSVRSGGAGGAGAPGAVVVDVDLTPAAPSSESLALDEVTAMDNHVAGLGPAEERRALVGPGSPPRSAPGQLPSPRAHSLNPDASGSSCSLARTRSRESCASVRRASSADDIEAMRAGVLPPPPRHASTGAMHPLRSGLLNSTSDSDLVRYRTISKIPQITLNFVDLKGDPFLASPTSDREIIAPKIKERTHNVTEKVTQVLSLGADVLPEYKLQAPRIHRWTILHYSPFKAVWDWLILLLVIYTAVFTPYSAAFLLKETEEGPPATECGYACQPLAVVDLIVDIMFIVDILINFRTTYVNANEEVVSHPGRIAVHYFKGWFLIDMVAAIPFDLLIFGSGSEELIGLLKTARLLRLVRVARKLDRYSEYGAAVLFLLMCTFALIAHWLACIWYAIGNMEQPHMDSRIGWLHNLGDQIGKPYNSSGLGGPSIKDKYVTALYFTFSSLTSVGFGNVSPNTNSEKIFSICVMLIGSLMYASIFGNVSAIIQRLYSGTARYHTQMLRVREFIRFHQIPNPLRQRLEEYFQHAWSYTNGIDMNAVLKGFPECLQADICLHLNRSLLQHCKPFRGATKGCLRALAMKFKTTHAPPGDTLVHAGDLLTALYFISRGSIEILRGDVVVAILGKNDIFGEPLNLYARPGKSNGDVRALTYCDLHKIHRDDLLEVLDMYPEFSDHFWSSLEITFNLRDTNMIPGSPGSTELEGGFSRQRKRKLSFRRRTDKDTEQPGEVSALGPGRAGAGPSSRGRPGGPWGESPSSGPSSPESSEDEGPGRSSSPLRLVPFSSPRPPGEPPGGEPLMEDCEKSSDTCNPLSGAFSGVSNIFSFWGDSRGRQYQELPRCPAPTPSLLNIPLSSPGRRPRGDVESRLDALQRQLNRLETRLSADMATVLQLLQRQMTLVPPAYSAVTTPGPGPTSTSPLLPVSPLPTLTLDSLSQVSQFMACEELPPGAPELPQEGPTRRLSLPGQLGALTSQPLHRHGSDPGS

Compound | hERG current change (%, negative = inhibition) at 1uM
CC(C)CC(NC(=O)C1CCCCC1)C(=O)NC(C)c1ccccc1 (stereo not shown) | 9.89%
C=CCSc1nc2c(cc1C#N)CCC2 | 2.93%
Cc1c(C)n(C)c2ccc(C(=O)NCCCN3CCOCC3)cc12 | 13%
CC/C([O-])=N\S(=O)(=O)c1ccc(N=NN(C)C)cc1.[K+] | 4.59%
O=C(Nc1ccc(Cl)cc1)N1CCCC(Cn2cccc2)C1 (stereo not shown) | 13.6%
CC12CCC(c3c(C(=O)O)nn(-c4ccccc4)c31)C2(C)C (stereo not shown) | 13.4%
CCN1CCN(c2c(S(=O)(=O)c3ccc(C)c(C)c3)cnc3ccc(F)cc23)CC1 | -1.65%
CCc1ccc(NC(=O)/C(C#N)=C/c2cn(CC(=O)O)c3ccccc23)cc1 | 19.8%
Cc1ccc(NC(=O)O/N=C/c2cccc([N+](=O)[O-])c2)cc1 | 2.47%
CC(=O)Nc1ccc(OC(F)(F)C(F)F)c(NC(C)=O)c1 | 14.3%
Cc1ccn2c(Nc3ccc4c(c3)OCO4)c(-c3ccccn3)nc2c1 | -11.4%
O=C(CCNC(=O)c1ccco1)Nc1ccc(C(F)(F)F)cc1 | 25%
O=C(COc1ccccc1)Nc1sc2c(c1C(=O)NCc1cccnc1)CCCC2 | 1.12%
COc1ccc(CCNC(=O)COc2ncnc3cc([N+](=O)[O-])ccc23)cc1 | 11%
CC(C)Oc1ccc(C(=O)NC(=S)Nc2ccc(CN3CCOCC3)cc2)cc1 | 7.56%
O=C(Nc1ccc(F)c(Cl)c1)C1CCN(c2ncnc3c2nc2n3CCCCC2)CC1 | -3.97%
O=[N+]([O-])c1cc(C(F)(F)F)ccc1N/N=C/c1cc2ccccc2nc1Cl | 14.1%
CCOC(=O)C1=C(N)OC2=C(C(=O)CCC2)[C@]12C(=O)N(CC(N)=O)c1ccccc12 | 18.3%
COc1ccc(OCc2cc(C(=O)NC(C)Cc3cnccn3)no2)c(Cl)c1 (stereo not shown) | 16.8%
CCOC(=O)c1sc(N(Cc2ccccc2)C(=O)CCl)nc1C | -5.15%
CCOC(=O)CN(C(=O)CNC(=O)c1cccs1)C(C(=O)NC1CCCC1)c1ccncc1 (stereo not shown) | 22.1%
CSc1ccccc1C(=O)NC1CCCC1 | 17.9%

Compound | hERG current change (%, negative = inhibition) at 1uM
COc1ccc(CC2(CO)CCN(S(=O)(=O)c3sccc3C)CC2)cc1 | 10%
O=C(CN1C(=O)/C(=C2\SC(=S)N(C3CCS(=O)(=O)C3)C2=O)c2ccccc21)Nc1ccc(F)cc1 (stereo not shown) | 17%
Nc1cc(Br)c(N)c(Br)c1 | -0.168%
O=C(Nc1ncc2c(n1)CC(c1ccccc1)CC2=O)c1ccco1 (stereo not shown) | -5.59%
CCN(CC(=O)Nc1ccc(NC(C)=O)cc1)C(=O)c1cc(C)on1 | 15.6%
COCCn1c(SCC(=O)c2ccc(CNC(C)=O)o2)nc2ccccc2c1=O | 5.38%
O=C(NC1CCCC1)c1nc2c(nnn2Cc2cccc(Cl)c2)c(=O)[nH]1 | 6.2%
COc1ccc(CN(C(=O)c2ccc(C)cc2)C2CCS(=O)(=O)C2)cc1 (stereo not shown) | 11.3%
Cc1ccc(S(=O)(=O)Cn2nnnc2C(c2ccccc2)N2CCN(c3ccccc3)CC2)cc1 (stereo not shown) | 14.3%
COc1cc(/C=N/NC(=O)c2ccc3c(c2)OCCO3)cc(Cl)c1O | 0.0139%
COC(=O)c1cc2occc2n1CC(=O)N(C)C1CCCCC1 | 5.68%
CC(=O)N1NC(=Nc2ccccc2)SC1(C)C | 9.6%
Cc1cccc(CSCCNC(=O)COc2ccc(Cl)cc2)c1 | 2.34%
O=C(c1cccnc1)c1cc2ccccc2[nH]1 | 11.3%
CC(=O)Nc1cc(C(=O)NCc2ccco2)ccc1Sc1ccc(C)cc1 | 2.87%
CCc1ccccc1NC(=O)CSc1nnc(-c2cc(C)[nH]n2)n1N | -10.7%
O=c1c2ccccc2nc(-c2ccc(Cl)cc2Cl)n1-c1ccncc1 | 9.24%
COc1ccc(-n2c(C)c([N+](=O)[O-])c3ccc(O)c(CN4CCCCC4)c32)cc1.Cl | 10.9%
O=C(Nc1ccc(F)cc1)C1CCCO1 (stereo not shown) | 13.5%
Cc1ccc(C(C)C)c(OCCNC(=S)Nc2cccc3ccccc23)c1 | 11.4%
CSc1ccc(/C=C(\C#N)C(=O)NC2CCCCC2)cc1 | 4.17%
CC1CC(=O)c2cnc(Nc3ccccc3)nc2C1 (stereo not shown) | -8.21%

Compound | hERG current change (%, negative = inhibition) at 1uM
CCCCC1(CC(=O)OC)C(=O)N(c2ccccc2)N(c2ccccc2)C1=O | 16%
O=C(CCCN1C(=O)c2ccccc2C1=O)NCc1cccnc1 | -8.54%
CCCCN(C(=N)N1CCCCC1)c1nc(C)c([N+](=O)[O-])c(=O)[nH]1 | 7.49%
C/C(=N\OC(=O)C1CC1)C1CC1c1ccc(F)cc1 (stereo not shown) | 0.718%
Cc1cc(C(=O)CN2C(=O)c3cccc(N)c3C2=O)c(C)n1Cc1cccs1 | 11.5%
CCOC(=O)c1cc2occc2n1CC(=O)NC1CCCCC1C (stereo not shown) | 15.4%
COc1ccc(Cn2c(C)nc([N+](=O)[O-])c2SCC(=O)O)cc1[N+](=O)[O-] | 16.8%
Cc1[nH]n(-c2ccccc2)c(=O)c1N=Nc1ccc2c(c1)OCCO2 | 10.9%
CCOC(=O)C(CCc1nnc(N)s1)C(=O)OCC | -21%
O=C(Nc1ccc(Cl)cc1)Nc1nc(-c2ccccc2O)cs1 | 13.2%
C[C@H](NC(=O)[C@H]1N2C(=O)c3ccccc3C2SC1(C)C)C(=O)N1CCC[C@H]1C(=O)O (stereo partly shown) | 12%
Cc1c(C(N)=O)sc2ncn(CC(=O)OC(C)C)c(=O)c12 | 14.6%
CCCNS(=O)(=O)c1ccc(OCC(=O)N2CCN(Cc3ccccc3)CC2)cc1 | -3.97%
CC(C)C[C@@H](C)C(=O)N(Cc1ccccc1)c1ccccc1 | 15.2%
O=C(O)c1ccc(NC(=O)c2cccc(C(=O)Nc3ccc(C(=O)O)cc3)n2)cc1 | 8.46%
CCCn1nnnc1NCc1cc(Br)ccc1OC | 12.5%
CC(C)CCNC(=O)C(c1ccncc1)N(CC1CCCO1)C(=O)Cn1nnc(-c2ccc(F)cc2)n1 (stereo not shown) | -18.8%
Cc1ccc(N=Cc2c(C)[nH]n(-c3ccccc3)c2=O)nc1 | 5.06%
Cc1ccc(NC(=O)c2cccc3cccnc23)cc1 | 9.44%
CCOC(=O)NNc1ccc2nonc2c1[N+](=O)[O-] | 6.83%
CCC(N=c1cc(-c2ccc(OC)c(OC)c2)oc2ccc(C)cc12)C(=O)O (stereo not shown) | 2.46%
COc1ccc([C@H]2CC(=O)C=C(c3ccc(Cl)c(C(F)(F)F)c3)C2)cc1 | 1.49%

Compound | hERG current change (%, negative = inhibition) at 1uM
Cc1ccc(F)cc1S(=O)(=O)NCc1ccc(N2CCN(C)CC2)cc1 | 6.76%
CCCn1nc(C(=O)N2CC(=O)Nc3ccccc32)c2ccccc2c1=O | 3.75%
CC(=O)c1ccc(OCC(=O)NCc2ccc(F)cc2)cc1 | 8.88%
CCN(CC)CCCNC(=O)CCC(=O)NNc1nc2ccccc2c2nc(C)nn12 | 9.18%
Cc1ccc(N(CC(=O)NCCSc2nc3ccccc3s2)S(=O)(=O)c2ccccc2)c(C)c1 | -3.12%
COC(=O)C(=O)/C=C(\O)c1c(C)cc(C)cc1C | 17.3%
S=C(NCCNC(=S)Nc1ccccc1)Nc1ccccc1 | 10.4%
COCc1cc(C)nc(SCC(=O)Nc2ccccc2C)c1C#N | 4.16%
OCCn1ccc(-c2ccccc2OCc2ccc(F)cc2)n1 | 11.3%
CC1CN(S(=O)(=O)c2cccc(C(=O)OC(C)C(=O)NC3CCCCC3C)c2)CC(C)O1 (stereo not shown) | -7.84%
CCN1CCN(CCCNC(=O)CCC(=O)N2CCOc3ccc(Cl)cc32)CC1 | 6.48%
CCCCC1=NN(C(=O)c2ccco2)C(O)(C(F)(F)F)C1 (stereo not shown) | 5.61%
OCCN1CCN(C(=S)Nc2ccc(Oc3ccccc3)cc2)CC1 | -3.32%
CCOc1cc(/C=N/NC(=O)c2ccc(NC(=O)C3CC3)cc2)ccc1O | 7.37%
CC(C)=CCC/C(C)=C/Cc1c(O)ccc(C(=O)/C=C/c2ccc(O)cc2)c1O | 9.68%
CN(NC(=O)C1CC(=O)N(c2ccccc2)C1)C1=NS(=O)(=O)c2ccccc21 (stereo not shown) | 9.36%
CCCn1c(=NC(=O)CCS(=O)(=O)c2ccccc2)sc2cc(S(N)(=O)=O)ccc21 | 3.12%
O=c1oc2ccccc2nc1/C=C(O)/C=C\c1ccccc1 | 16.2%
CCn1ncc(C(=O)Nc2cc(C)on2)c1C | 9.62%
CCOC(=O)c1c(NC(=O)CSc2nnc(CNc3ccc(Cl)cc3)o2)sc(C)c1C | 19%
CCOC(=O)c1sc2nc(CN3CCN(c4cccc(C(F)(F)F)c4)CC3)[nH]c(=O)c2c1C | 4.4%
Cc1cc(C)c2c(CN3CCCCC3)cc(=O)oc2c1 | 16.1%
